Data taken from a protein production outcome set (Wang et al. 2014).

Experiment: label from the status in PepcDB records

| Sequence | protein production |
| --- | --- |
| MEHYISLFVKAVFVENMALAFFLGMCTFIAISKKVETAIGLGIAVIVVQTITVPANNLIYTYLLKDGALAWAGLPEVDLSFLGLLSYIGVIAAIVQILEMLLDKYVPSLYNALGVFLPLITVNCAIMAGSLFMVERDYNLAESTVYGVGSGFSWALAIAALAGIREKLKYSDVPEGLQGLGITFITIGLMSLGFMSFSGVQL | failed |
| MESMKPMYRSRSWRRKYVRTPGGRVVVHFERKKPKIAHCAICGRPLNGIPRGRPVEMRKLPKTKKRPERPMPYLCPRCMRRVMKEQIRSQIMKGLEHHHHHH | failed |
